Results taken from PubChem BioAssay AID1508624 (National Center for Advancing Translational Sciences (NCATS), 2021).
Screen size: about 48,000 compounds; about 120 (0.25%) were called active. Another 4% or so got no clear call; they are omitted. Calls come from the whole dose curve; as a rule, active = well fitted activation curve with a large enough effect; inconclusive = small, poorly fitted or top-dose-only effect, or another doubt; inactive = no such curve, though single readings can be large or run the other way. The list shows a part of the results.

Assay: Primary qHTS for Identification of Small Molecule Activators of Huntingtin-Antisense Promoter Activity; note: nearly all actives have a fitted effect of over 55% in size
Conditions: HEK293 HTT-AS promoter firefly luciferase reporter, 24 h; series mostly up to 57.5 µM; activity change, positive = activation: at the top concentration
Method in brief: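 HEK293 Fluc reporter, 2,500 cells/well, 24 h pre-culture; cpds up to 57.5 uM final, 24 h 37 degrees C; Dual-Glo, 10 min RT; normalized vehicle = 0%, zero RLU = -100%.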

Activity change, positive = activation, inactive:
CC1CN(C(=O)N2CCC(C(=O)NCCC3=CCCCC3)CC2)c2ccccc2O1 (stereo not given) 3.58%
O=C(CSc1nnc(-c2cccs2)o1)Oc1ccc(Cl)cc1 -20.2%
CCCCNC(=O)C1CCCN(c2nnc(C)c3c(C)n(-c4ccc(Cl)cc4)nc23)C1 (stereo not given) -19.9%
CC(C)c1ccc(S(=O)(=O)Nc2ccc(O)c(Sc3nc4ccccc4s3)c2)cc1 -28.6%
CSc1cccc(NC(=O)C2CCN(S(=O)(=O)c3ccc4[nH]c(=O)ccc4c3)CC2)c1 -19.7%
CCOC(=O)C1(C)C=C(Nc2ccc(C)cc2)C(=O)N1c1ccccc1 (stereo not given) 0.606%
CCN(CC)CCN(C(=O)c1ccc(C(=O)OC)cc1)c1nc2ccc(Cl)cc2s1 5.63%
CCCC(=O)Nc1ccc(NC(=O)c2sc3ccccc3c2Cl)cc1 -35.3%
COCCn1c(SCC(=O)c2ccccc2)nc2cc(C(=O)NC3CCCC3)ccc2c1=O -2.82%
COc1ccc(NC(=O)CN(c2cccc(C)c2C)S(=O)(=O)c2ccccc2)cc1OC -22.7%
CCOC(=O)CSC1=Nc2ccccc2C2=NC(CCC(=O)NCc3ccccc3)C(=O)N12 (stereo not given) 17.2%
COc1ccc(C(=O)N2CCN(C(=O)COc3ccc(Br)cc3)CC2)cc1OC -10.1%
Cc1cc2c(cc1C)C(c1cccc(OC(C)C)c1)CC(=O)N2 (stereo not given) -33.4%
CCCCN(C)CCCNC(=O)Cn1nc(CC)n2c(cc3sc(C)cc32)c1=O 0.345%
Cc1cccc(-c2noc(-c3ccc(NC4CCCC4)c([N+](=O)[O-])c3)n2)c1 1.09%
Cc1ccc(OCC(=O)Nc2cccc(C(=O)OCc3cc(=O)n4cc(C)sc4n3)c2)cc1 -12.3%
O=C(CC1N=C2c3ccccc3N=C(SCc3cccc(Cl)c3)N2C1=O)NC1CCCCC1 (stereo not given) 12.1%
COc1cc(OC)c(NC(=O)c2nc(-c3ccncc3)no2)cc1Cl 2.33%
COc1ccc(NC(=O)CSc2nnc(-c3nnn(-c4ccc(F)cc4)c3C)o2)cc1 5.29%
CCCCCNC(=O)C1CCC(Cn2c(=O)c3sccc3n(CC(=O)N3CCCC3)c2=O)CC1 (stereo not given) -6.29%
CCOCN(C(=O)Cn1c(C)nc2ccccc21)c1c(C)cccc1CC 2.96%
Cc1ccc(Cl)cc1-n1c(=O)cc(N2CCN(c3ccccc3)CC2)[nH]c1=O -15.1%
Cc1cc2n(n1)CCCN2C(=O)Nc1ccccc1F -6.03%
COc1cccc(C(=O)N2CCC(c3nc4ccccc4s3)CC2)c1 -13.7%
COCCNc1cc(N2CCN(C3CCCCC3)CC2)c2noc3c2c1C(=O)c1ccccc1-3 -10.2%
CCOc1ccccc1NC(=O)c1ccc2c(c1)CCCN2S(C)(=O)=O 27.9%
Cc1ccc(C(=O)Nc2nnc(SCc3cc(=O)c4c(C)ccc(C)c4[nH]3)s2)cc1 -27.1%
O=C(C1COc2ccccc2O1)N(Cc1cccnc1)c1nc2c(F)cc(F)cc2s1 (stereo not given) 11.4%
O=C(Nc1ccc2nn(-c3ccc(F)cc3)nc2c1)c1cccc2c(Cl)cccc12 -3.29%
Cc1ccc(Cl)cc1N1CCN(C(=O)c2c(C)oc3ncnc(N4CCOCC4)c23)CC1 -20%
COC(=O)c1cccc(Nc2c(-c3cc(Br)ccc3O)nc3nc[nH]n23)c1 -8.74%
Cc1cc(C)cc(OCC(=O)Nc2ccc(-c3nc4ncccc4o3)cc2C)c1 -5.44%
CCc1nnc(SCc2nc(-c3ccccc3F)oc2C)c2cc3sccc3n12 -11.5%
CCOc1ccccc1NC(=O)c1c(NCc2ccc(OC)c(OC)c2OC)sc2c1CCC(C)C2 (stereo not given) -34.6%
CCOc1ccc(NC(=O)C2CCCN(c3nnc(-n4c(C)ccc4C)s3)C2)cc1 (stereo not given) 5.35%
CCc1ccc(NCc2cc3ccc(OC)cc3n(CC(=O)Nc3cccc(Cl)c3C)c2=O)cc1 3.98%
COCCN1C(=O)c2[nH]nc(-c3c(C)cc(C)cc3O)c2C1c1cccc(O)c1 (stereo not given) -40.5%
CC(=O)c1ccc(NC(=O)C2CCC(CNS(=O)(=O)c3cccc4nsnc34)CC2)cc1 (stereo not given) 4.33% [at 11.5 µM, percent change from vehicle, -100% = no light]
CCc1ccccc1N1C(=O)N(Cc2cccc(Cl)c2)c2ccccc2S1(=O)=O -39.8%
CC(C)(C)OC(=O)N1CCC(c2c(C(=O)N3CCN(C(=O)c4ccco4)CC3)cnn2-c2ccc(Cl)cc2)CC1 -5.21%
Cc1ccc(C(=O)NCc2nnnn2-c2ccc(C)c(C)c2)cc1 -18.7%
Cc1ccc(-c2nnc(Nc3ccc(Br)cc3)c3ccccc23)cc1S(=O)(=O)NCc1nc2ccccc2[nH]1 -31.5%
CCc1ccccc1NC(=O)CC(C)n1nc(C)cc1C (stereo not given) -0.116%
CCCCCC[C@@H](CCC)C(=O)O -19.4%
Cc1ccc(N2C(=O)c3n[nH]c(C)c3C2c2ccc(C(C)C)cc2)cc1 (stereo not given) 0.257%
CCOC(=O)c1c(S(=O)(=O)N2CCN(c3ccccc3OC)CC2)c(C)n(C)c1C -7.64%
COc1cc(OC)c(NC(=O)NCc2ccc3c(c2)CCN3C(C)=O)cc1Cl -18.2%
COc1cc2c(cc1OC)C(=O)C(CC1CCN(Cc3ccccc3)CC1)C2 (stereo not given) -17.8%
CCCCC(CC)CN1CN(CC(CC)CCCC)CC(C)(N)C1 (stereo not given) -13.7%
O=c1c2cc3c(cc2n(Cc2cccc(F)c2)c(=O)n1Cc1nc(-c2ccccc2)no1)OCO3 -14.7%
Cc1nc2sc(C(=O)Nc3ccc(F)cc3)c(N)c2c(-c2ccc(Br)cc2)c1C(=O)Nc1ccc(Cl)cc1 11.3%
CCc1cccc(NC(=O)c2cnc(SC)nc2-c2ccccc2)c1 -21%
CCOc1ccc(/C=C/c2nc(C#N)c(NC(C)CC)o2)cc1 (stereo not given) -20%
Cc1cc2nc(-c3ccc(OCc4ccc(F)cc4)cc3)cc(C(F)(F)F)n2n1 -5.94%
Cc1ccc(C)c(Cn2c(=O)n(Cc3ccc4c(c3)OCO4)c(=O)c3oc4ccccc4c32)c1 -17.1%
CCCCOc1ccc(C(=O)NCCc2sc(-c3cccc(F)c3)nc2C)cc1 -29.6%
O=C(Nc1ccc(NC(=O)c2cccs2)cc1)c1cccc(Br)c1 3.01%
COc1ccc(-c2cn3nc(N4CCC(C(=O)Nc5cccc(OC)c5)CC4)sc3n2)cc1 0.462%
CCOc1ccc(Sc2cc(C(=O)NC(C)CC)c3ccccc3n2)cc1 (stereo not given) -23.2%
COc1ccc(N2CCN(S(=O)(=O)c3ccc(OC)c(-c4noc(C)n4)c3)CC2)cc1 -4.83%
O=C(Cn1ncc2c3ccccc3n(Cc3ccc(Cl)cc3)c2c1=O)NCc1cccs1 -7.42%
CCCCCCn1c(=O)c2c(ncn2C)n(C)c1=O -0.0086%
Cc1cccc(NC(=O)c2sc3nc4c(cc3c2N)CN(Cc2ccccc2)CC4)c1 0.938%
CCOc1ccccc1NC(=O)C(C)Sc1nc(-c2ccccc2)c(C#N)c(=O)[nH]1 (stereo not given) -17.8%
COc1ccc(C2C(=O)N(C3CCCCC3)CC(=O)N2CCc2ccc(OC)c(OC)c2)cc1 (stereo not given) -4.98%
Cc1ccc(C)c(CN2C(=O)C3(c4ccccc42)N(c2cccc(C(F)(F)F)c2)C(=O)CS3(=O)=O)c1 (stereo not given) -23.4%
Cc1ccc2oc(-c3cc(NC(=O)c4ccc5c(c4)OCCO5)cc(C)c3O)nc2c1 -0.673%
COc1cc(NC(=O)c2nc3ccccc3nc2C)cc(OC)c1OC 0.352%
CCC(C(=O)N1CCN(c2ccccc2F)CC1)n1nc(C)c2sc3ccccc3c2c1=O (stereo not given) -16.2%
COc1cc(CN(C(=O)c2cccc(Cl)c2)c2ccccn2)cc(OC)c1OC -26.4%
COc1ccc(NC(=O)CCn2nc(-c3ccccc3OC)c3c(C)cc(C)nc32)cc1 -23.4%
Cc1ccccc1OCc1ccc(-c2nc(C#N)c(N3CCN(C)CC3)o2)o1 -29.4%
Cc1ccc(Cl)cc1N1CCN(C(=O)c2cccn3c(=O)c4cc(Cl)ccc4nc23)CC1 -7.73%
CC1=C(C(=O)OCC(C)C)C(c2ccc(OCc3ccccc3)cc2)N2C(=O)CCSC2=N1 (stereo not given) -18.6%
Cc1ccc(-n2nc(C(=O)Nc3ccc(Cl)cn3)c3c4ccccc4n(C)c3c2=O)cc1 -15.5%
O=C(C1CCCN(S(=O)(=O)c2ccc(Br)s2)C1)N1CCN(c2ccc(F)cc2)CC1 (stereo not given) -37.4%
Cc1cc(NC(=O)CSc2nc3c([nH]c4ccccc43)c(=O)n2-c2ccccc2)no1 -17.8%
O=c1cc(-c2ccc(F)cc2)nc(SCc2nc(-c3cccc(Cl)c3)no2)[nH]1 -7.76%
CCc1ccc(NC(=O)CSc2nccn2-c2cccc(C)c2C)cc1 -25.8%
CCc1ccc(NC(=O)c2ccc(F)c(S(=O)(=O)N(C)C3CCCCC3)c2)cc1 -44.3%
Cc1ccc(C2CC(=O)N(Cc3ccccc3)c3c2c(C)nn3-c2nc(C)cc(C)n2)cc1 (stereo not given) -12.8%
CC1CN(C(=O)N2CCC(C(=O)NCCC3=CCCCC3)CC2)c2cc(Cl)ccc2O1 (stereo not given) -8.46%
COc1ccc(NC(=O)CSc2nc3ccncc3[nH]2)c(OC)c1 -22.4%
Cc1ccc(C)n1-c1c(C(=O)NCCCN2CCN(c3ccc(F)cc3)CC2)sc2ncccc12 2.79%
Cc1ccc2c(=O)cc(C(=O)Nc3sc4c(c3C(N)=O)CCCC4)oc2c1 9.67%
Cc1ccc(Cl)cc1-n1ncc2c(NCCCn3ccnc3)ncnc21 -3.78%
O=C(C1CCN(S(=O)(=O)Cc2ccccc2)CC1)N1CCN(c2ccc(F)cc2)CC1 -25.7%
O=C(Nc1ccc2c(c1)N(C1CCCC1)C(=O)c1ccccc1S2)c1cccc(F)c1 -29.8%
CC(C)Oc1ccc(CNC(=O)CCn2c(=O)c3cccn3c3ccc(F)cc32)cc1 -7.81%
COc1cccc(-n2c(=O)c3c(C)c(C(=O)N(C)C)sc3n(CC(=O)Nc3ccc(C)cc3Cl)c2=O)c1 -11.3%
COc1cccc(CNC(=O)C2CCCN(c3ncnc4onc(-c5ccc(F)cc5)c34)C2)c1 (stereo not given) -4.56%
CC(C)OCCCNC(=O)CN1C(=O)CSc2ccc(S(=O)(=O)N3CCCCC3)cc21 -9.99%
O=C(NCCc1csc(-c2cccc(F)c2)n1)c1ccc(Br)o1 -21.8%
Cc1ccc(Cl)cc1NCc1nnc2n1CCCCC2 -11.2%
O=C1CC(c2nc(-c3cccc(Cl)c3)no2)CN1c1ccc2c(c1)OCCO2 (stereo not given) -39.1%
